# Reference: PubChem BioAssay (Tox21)
# “And” between values parts separate entries of the source, which are not always exact repeats. Equal values may be shown once. The source made the active and inactive calls. Unless noted, the call rests on the fitted dose curve; in most records, active means well fitted curve in the direction sought with a large enough effect in the repeat runs; inconclusive means weak or mixed curves; inactive means no such curve, though single readings can be large; an effect the other way counts as inactive or inconclusive.
# Key:
# [1] = qHTS assay to identify small molecule antagonists of the androgen receptor (AR) signaling pathway - cell viability counter screen (AID 743033; further: nearly all actives have a fitted effect of over 45% in size; further: potency means the concentration at half of the fitted maximal effect); settings: AR-bla HEK293 viability, CellTiter-Glo luminescence, 16 h; activity change, negative = cytotoxicity: at 58.5 µM (top of the series)
# [2] = system: thyroid hormone receptor (rat, GH3 cells); assay: qHTS assay to identify small molecule agonists of the thyroid receptor (TR) signaling pathway (AID 743066; calls by dose curve; further: potency means the concentration at half of the fitted maximal effect; on activation: on the % scale 0 is the no-effect control and ±100 the full control effect); settings: GH3.TRE-Luc cells, TR agonist luciferase, 24 h; activation: at 83.9 µM (top of the series) unless noted
# [3] = qHTS assay to identify small molecule antagonists of the estrogen receptor alpha (ER-alpha) signaling pathway using the BG1 cell line (AID 743080; calls by dose curve;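 further: BG1 cells stimulated with 17beta-estradiol alongside compound; nearly all actives have a fitted effect of over 25% in size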; further: potency means the concentration at half of the fitted maximal effect); settings: BG1Luc4E2 ERE-luciferase antagonist mode, luminescence; activity change, negative = inhibition: at 70.3 µM (top of the series) unless noted
# In short: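 After 5 days in phenol-red-free 10% charcoal-stripped FBS medium, BG1-Luc-4E2 cells were seeded, left 24 h at 37 C, co-treated with compounds and 17beta-estradiol for 21.5 h, then assayed for viability and luciferase.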
# Aromatase (Homo sapiens) = Aromatase (Homo sapiens) (UniProt P11511); assay: qHTS assay to identify aromatase inhibitors (AID 743083); further: potency means the concentration at half of the fitted maximal effect; nearly all actives have a fitted effect of over 55% in size
# Chain of UniProt P11511 (P11511 whole entry, looked up): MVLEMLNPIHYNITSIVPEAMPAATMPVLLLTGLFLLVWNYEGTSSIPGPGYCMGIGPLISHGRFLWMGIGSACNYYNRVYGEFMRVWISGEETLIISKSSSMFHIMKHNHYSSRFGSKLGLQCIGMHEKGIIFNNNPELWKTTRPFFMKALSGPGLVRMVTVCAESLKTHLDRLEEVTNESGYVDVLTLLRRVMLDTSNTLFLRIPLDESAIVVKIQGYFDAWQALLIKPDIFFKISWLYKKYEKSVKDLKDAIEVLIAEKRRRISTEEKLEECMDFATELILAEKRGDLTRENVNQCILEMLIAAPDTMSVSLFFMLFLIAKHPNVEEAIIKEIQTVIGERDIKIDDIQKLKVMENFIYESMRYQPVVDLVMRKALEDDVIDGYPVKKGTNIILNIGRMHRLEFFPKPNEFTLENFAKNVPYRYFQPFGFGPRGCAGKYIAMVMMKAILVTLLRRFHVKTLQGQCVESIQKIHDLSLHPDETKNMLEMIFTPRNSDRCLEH
# [4] = qHTS assay to identify small molecule antagonists of the estrogen receptor alpha (ER-alpha) signaling pathway - cell viability counter screen (AID 743074; calls by dose curve;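 further: HEK293 cells carrying ER-alpha-UAS-bla reporter stimulated with 17beta-estradiol; nearly all actives have a fitted effect of over 45% in size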; further: potency means the concentration at half of the fitted maximal effect)
# [5] = molecular target: Androgen receptor (Homo sapiens) (UniProt P10275); assay: qHTS assay to identify small molecule antagonists of the androgen receptor (AR) signaling pathway (AID 743035; active means well fitted inhibition curve with a large enough effect in the signal ratio in the repeat runs, not every such curve was filed as active; inconclusive means weak or mixed curves, or effect the other way; inactive means no such curve, though single readings can be large or run the other way; the % refers to the signal ratio; further: potency means the concentration at half of the fitted maximal effect; on activity change, negative = inhibition: on the % scale 0 is the no-effect control and ±100 the full control effect); settings: HEK293 AR-UAS-bla, R1881-stimulated, beta-lactamase FRET, 16 h; activity change, negative = inhibition: at 58.5 µM (top of the series) unless noted
# Chain of UniProt P10275 (P10275 whole entry, looked up): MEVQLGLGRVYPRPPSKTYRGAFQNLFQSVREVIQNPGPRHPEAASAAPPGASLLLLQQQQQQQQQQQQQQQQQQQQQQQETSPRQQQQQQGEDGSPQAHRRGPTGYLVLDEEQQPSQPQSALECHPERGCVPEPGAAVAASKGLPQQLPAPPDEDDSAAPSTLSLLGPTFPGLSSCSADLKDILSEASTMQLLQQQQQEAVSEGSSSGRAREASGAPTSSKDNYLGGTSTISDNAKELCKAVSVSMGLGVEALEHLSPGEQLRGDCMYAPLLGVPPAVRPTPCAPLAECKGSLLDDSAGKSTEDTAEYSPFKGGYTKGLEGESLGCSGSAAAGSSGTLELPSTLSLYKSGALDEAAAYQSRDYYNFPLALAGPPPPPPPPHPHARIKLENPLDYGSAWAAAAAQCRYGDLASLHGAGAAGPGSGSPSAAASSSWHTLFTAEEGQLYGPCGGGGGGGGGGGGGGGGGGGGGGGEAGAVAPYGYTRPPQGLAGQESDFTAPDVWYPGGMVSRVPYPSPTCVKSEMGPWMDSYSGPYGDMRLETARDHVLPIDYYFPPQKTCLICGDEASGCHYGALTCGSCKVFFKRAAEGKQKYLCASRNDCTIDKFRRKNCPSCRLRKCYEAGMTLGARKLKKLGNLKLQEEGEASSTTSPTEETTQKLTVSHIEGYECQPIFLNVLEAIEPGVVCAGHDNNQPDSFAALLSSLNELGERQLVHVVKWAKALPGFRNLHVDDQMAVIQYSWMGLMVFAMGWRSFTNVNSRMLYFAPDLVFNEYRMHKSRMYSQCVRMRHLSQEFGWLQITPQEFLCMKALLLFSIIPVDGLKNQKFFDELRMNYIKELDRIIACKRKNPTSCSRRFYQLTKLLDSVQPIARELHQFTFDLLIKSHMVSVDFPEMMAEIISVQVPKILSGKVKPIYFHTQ
# In short: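 Using qHTS, AR-UAS-bla GripTite HEK293 cells received compound, then R1881, and were cultured 16 h at 37C/5% CO2 before a 2 h room-temperature LiveBLAzer B/G FRET substrate step and fluorescence measurement.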
# [6] = molecular target: Androgen receptor (Homo sapiens) (UniProt P10275); assay: qHTS assay to identify small molecule agonists of the androgen receptor (AR) signaling pathway (AID 743036; active means well fitted activation curve with a large enough effect in the signal ratio in the repeat runs, with a control signal flat, not every such curve was filed as active; inconclusive means weak or mixed curves, or effect the other way; inactive means no such curve, though single readings can be large or run the other way; the % refers to the signal ratio; further: on the % scale 0 is the no-effect control and ±100 the full control effect); settings: HEK293 AR-UAS-bla GripTite, beta-lactamase FRET ratio, 16 h; activation: at 62.4 µM (top of the series) unless noted
# In short: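 Beta-lactamase under UAS control, stably integrated in HEK293 GripTite cells, reports receptor activation. After 16 h compound treatment, cells received FRET substrate for 2 h at room temperature before fluorescence reading.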
# [7] = qHTS assay to identify small molecule antagonists of the androgen receptor (AR) signaling pathway using the MDA cell line - cell viability counter screen (AID 743041; further: nearly all actives have a fitted effect of over 45% in size; further: potency means the concentration at half of the fitted maximal effect); settings: MDA-kb2 viability, CellTiter-Fluor, 16 h, cells co-treated with R1881 androgen agonist; viability change, negative = cytotoxic: at 70.3 µM (top of the series) unless noted
# In short: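 Same-well cytotoxicity was assessed by CellTiter-Fluor in MDA-kb2 AR-luc cells after 16 h of compound treatment under R1881 agonism.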
# [8] = qHTS assay to identify small molecule antagonists of the thyroid receptor (TR) signaling pathway - cell viability counter screen (AID 743064); settings: GH3.TRE-Luc viability, CellTiter-Fluor, 24 h; activity change, negative = cytotoxic: at 70.3 µM (top of the series) unless noted; further: nearly all actives have a fitted effect of over 50% in size; further: potency means the concentration at half of the fitted maximal effect
# In short: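 Compounds were tested on GH3.TRE-Luc cells in the presence of T3 at 1 nM final. Following 23.5 h at 37 °C, cell viability was quantified by CellTiter-Fluor.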
# [9] = molecular target: Estrogen receptor (Homo sapiens) (UniProt P03372); assay: qHTS assay to identify small molecule agonists of the estrogen receptor alpha (ER-alpha) signaling pathway using the BG1 cell line (AID 743079); settings: BG1Luc4E2 cells, ERE-luciferase agonist, 22 h; activation: at 70.3 µM (top of the series) unless noted; further: nearly all actives have a fitted effect of over 20% in size; further: potency means the concentration at half of the fitted maximal effect
# Chain of UniProt P03372 (P03372 whole entry, looked up): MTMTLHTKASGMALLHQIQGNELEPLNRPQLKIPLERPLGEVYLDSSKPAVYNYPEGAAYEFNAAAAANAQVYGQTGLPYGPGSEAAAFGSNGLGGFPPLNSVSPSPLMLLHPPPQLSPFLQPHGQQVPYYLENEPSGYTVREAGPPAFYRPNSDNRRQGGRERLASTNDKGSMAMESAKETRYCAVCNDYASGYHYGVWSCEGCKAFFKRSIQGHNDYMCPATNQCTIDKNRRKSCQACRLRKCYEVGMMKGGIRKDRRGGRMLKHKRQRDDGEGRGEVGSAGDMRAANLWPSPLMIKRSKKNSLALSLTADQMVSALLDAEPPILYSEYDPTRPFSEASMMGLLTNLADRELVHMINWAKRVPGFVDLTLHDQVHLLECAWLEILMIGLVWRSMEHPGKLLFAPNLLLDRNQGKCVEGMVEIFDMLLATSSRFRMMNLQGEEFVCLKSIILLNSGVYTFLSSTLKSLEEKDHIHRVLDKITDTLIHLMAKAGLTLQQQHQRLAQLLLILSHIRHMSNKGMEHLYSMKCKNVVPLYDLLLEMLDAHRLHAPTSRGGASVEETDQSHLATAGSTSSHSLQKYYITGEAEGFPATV
# [10] = qHTS assay to identify small molecule antagonists of the thyroid receptor (TR) signaling pathway (AID 743065); further: nearly all actives have a fitted effect of over 55% in size; further: potency means the concentration at half of the fitted maximal effect
# In short: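 GH3.TRE-Luc rat pituitary cells (two TREs driving luciferase) were dosed with compound, then stimulated with 1 nM T3 (final) for 23.5 h at 37 C. ONE-Glo luminescence was the read-out, with CellTiter-Fluor fluorescence as the cytotoxicity counter-screen.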
# [11] = qHTS assay to identify small molecule antagonists of the estrogen receptor alpha (ER-alpha) signaling pathway using the BG1 cell line - cell viability counter screen (AID 743081);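 further: compound given together with 17beta-estradiol as the ER stimulus; nearly all actives have a fitted effect of over 45% in size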; further: potency means the concentration at half of the fitted maximal effect
# [12] = qHTS assay to identify aromatase inhibitors - cell viability counter screen (AID 743084); settings: MCF-7 aro ERE viability, CellTiter-Fluor, 24 h; activity change, negative = cytotoxicity: at 70.3 µM (top of the series);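 further: cells stimulated with testosterone during compound exposure; nearly all actives have a fitted effect of over 55% in size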; further: potency means the concentration at half of the fitted maximal effect
# [13] = molecular target: Estrogen receptor (Homo sapiens) (UniProt P03372); assay: qHTS assay to identify small molecule antagonists of the estrogen receptor alpha (ER-alpha) signaling pathway (AID 743069; active means well fitted curve in the direction sought with a large enough effect in the signal ratio in the repeat runs, not every such curve was filed as active; inconclusive means weak or mixed curves, or effect the other way; inactive means no such curve, though single readings can be large or run the other way; the % refers to the signal ratio; further: potency means the concentration at half of the fitted maximal effect); settings: HEK293 ER-alpha-UAS-bla, beta-lactamase ratio, antagonist mode; activity, negative = inhibition: at 69.4 µM (top of the series) unless noted
# In short: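 Reporter cells (ER-alpha-bla, HEK293 background) are conditioned overnight in stripped-serum medium (2% charcoal-stripped FBS). Compound and 17beta-estradiol exposure runs 18 hr at 37C, 5% CO2.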
# [14] = molecular target: Estrogen receptor (Homo sapiens) (UniProt P03372); assay: qHTS assay to identify small molecule agonists of the estrogen receptor alpha (ER-alpha) signaling pathway (AID 743075; calls by dose curve;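 further: HEK293 GripTite cells with ER-alpha and UAS-driven beta-lactamase reporter; on the % scale 0 is the no-effect control and ±100 the full control effect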)
# Tags describe the fitted curve by direction and shape or compound fluorescence and quenching.
smiles,measurement,setting,value
NC(=O)N(O)[C@@H]1C=C[C@H](Oc2cccc(Oc3ccc(F)cc3)c2)C1,Potency,[1],inconclusive: 54900 nM [cytotoxic]
same,activation,[2],inconclusive: -6.52% [phenotype inactive]
same,Potency,[3],active: 77 µM
same,Potency,Aromatase (Homo sapiens),"inconclusive: 30.6 µM [inhibitor, partial curve]"
CCCCOCCO,Potency,[1],"inconclusive: 34.7 nM [cytotoxic, full curve, poor fit]"
same,Potency,[2],inactive
same,Potency,[4],"inconclusive: 21.9 µM [rising, partial curve, poor fit]"
O=C1CC[C@@H](C(=O)O)N1,Potency,[5],inactive
same,Potency,[6],inactive
same,Potency,[7],"inconclusive: 0.0124 µM [rising, full curve, poor fit]"
CC(O)Cn1cnc2c1c(=O)n(C)c(=O)n2C (stereo not drawn),Potency,[1],"inconclusive: 723 nM [cytotoxic, full curve, poor fit]"
same,Potency,[4],"inconclusive: 5.74 µM [rising, partial curve, poor fit]"
CC(C)n1c(/C=C/[C@@H](O)C[C@@H](O)CC(=O)O)c(-c2ccc(F)cc2)c2ccccc21,Potency,[1],"inconclusive: 3.38 µM [cytotoxic, partial curve, poor fit] and inconclusive: 2.45 µM [cytotoxic, partial curve, poor fit]"
same,Potency,[4],"inconclusive: 54.9 µM [cytotoxic, single point]"
same,Potency,Aromatase (Homo sapiens),"inconclusive: 4.22 µM [inhibitor, partial curve] and inconclusive: 7.7 µM [inhibitor, partial curve]"
COc1ccc(CCO)cc1,"activity change, negative = inhibition",[5],inconclusive: 2.02%
same,Potency,[6],inactive
same,Potency,[7],inactive
same,Potency,[8],inactive
COc1nc(C)nc(NC(=O)NS(=O)(=O)c2ccccc2OCCCl)n1,Potency,[1],inactive
same,activation,[9],inconclusive: 0.983% [phenotype inactive]
OC(CCN1CCCCC1)(c1ccccc1)c1ccccc1,Potency,[5],inactive
same,Potency,[6],inactive
same,Potency,[7],"inconclusive: 27.8 µM [cytotoxic, partial curve, poor fit]"
same,Potency,[8],"inconclusive: 29.8 µM [cytotoxic, single point]"
same,Potency,[10],inconclusive: 26.6 µM [inhibitor]
same,Potency,[11],"inconclusive: 18.8 µM [cytotoxic, partial curve]"
CCCCCCOC(=O)C(C)CC (stereo not drawn),Potency,[5],inactive
CCOC(=O)OC(C)OC(=O)[C@@H]1N2C(=O)[C@@H](NC(=O)[C@H](N)c3ccccc3)[C@H]2SC1(C)C (stereo partly drawn),Potency,[1],inconclusive: 0.7 nM [cytotoxic]
same,Potency,[12],inactive
COCCOC(=O)C1=C(C)NC(C)=C(C(=O)OC/C=C/c2ccccc2)C1c1cccc([N+](=O)[O-])c1 (stereo not drawn),Potency,[1],inconclusive: 26800 nM [cytotoxic]
same,activation,[2],inconclusive: -6.86% [phenotype inactive]
same,Potency,[13],active: 23.9 µM [inconclusive]
same,Potency,[9],"inconclusive: 16.8 µM [inhibitor, partial curve]"
same,Potency,[11],inactive
same,Potency,Aromatase (Homo sapiens),inconclusive: 29.8 µM [inhibitor]
same,Potency,[12],"inconclusive: 26.6 µM [cytotoxic, partial curve, poor fit]"
CCOc1ccc(NC(C)=O)cc1N,Potency,[5],"inconclusive: 55.7 µM [rising, partial curve, poor fit]"
same,Potency,[2],inactive
same,Potency,[4],inactive
same,activation,[9],inconclusive: 4.89% [phenotype inactive] [at 95 µM]
same,"activity change, negative = inhibition",[3],inconclusive: 8.59% [at 95 µM]
COc1nccnc1NS(=O)(=O)c1ccc(N)cc1,"activity change, negative = inhibition",[5],inconclusive: -1.61%
same,Potency,[6],inactive
same,Potency,[4],"inconclusive: 7.56 µM [rising, partial curve, poor fit]"
Cn1sccc1=O,Potency,[1],"inconclusive: 27500 nM [cytotoxic, partial curve]"
same,Potency,[2],"inconclusive: 61.1 µM [inhibitor, partial curve, poor fit]"
same,Potency,[9],"inconclusive: 68.6 µM [activator, single point]"
same,Potency,[12],"inconclusive: 68.6 µM [cytotoxic, single point]"
COc1cc(NCc2ccc3nc(N)nc(N)c3c2C)cc(OC)c1OC,Potency,[1],active: 674 nM
same,Potency,[4],active: 0.213 µM
same,Potency,[9],inactive
same,Potency,[3],"inconclusive: 2.11 µM [falling, full curve]"
same,Potency,[11],inconclusive: 29.8 µM [cytotoxic]
same,Potency,Aromatase (Homo sapiens),"inconclusive: 29.8 µM [inhibitor, partial curve, poor fit]"
same,Potency,[12],"inconclusive: 29.8 µM [cytotoxic, single point]"
Cc1ccc(O)cc1,"activity change, negative = inhibition",[5],inconclusive: 17.3%
same,Potency,[7],inconclusive: 0.0007 µM
same,Potency,[2],inconclusive: 26.6 µM [activator]
same,Potency,[11],"inconclusive: 18.8 µM [cytotoxic, single point]"
CC(CO)c1ccccc1 (stereo not drawn),"activity change, negative = inhibition",[5],inconclusive: -40.8%
same,Potency,[10],inactive
same,Potency,[14],inactive
same,Potency,[9],"inconclusive: 68.6 µM [activator, partial curve, poor fit]"
CC(C)c1ccc2cc(C(C)C)ccc2c1,Potency,[5],inactive
same,Potency,[7],inactive
same,Potency,[9],inactive
same,Potency,[3],"inconclusive: 24.3 µM [rising, partial curve]"
